Experimental data taken from PubChem BioAssay AID504832 (National Center for Advancing Translational Sciences (NCATS), 2011).
Out of some 310,000 compounds screened, about 18,000 (5.8%) were called active. The shares of active, inactive and inconclusive entries below differ from those in the screen. Calls come from the whole dose curve; as a rule, active = well fitted inhibition curve with a large enough effect; inconclusive = small, poorly fitted or top-dose-only effect, or another doubt; inactive = no such curve, though single readings can be large or run the other way. Potencies of inconclusive entries are left out as doubtful fits.

Test: Primary qHTS for delayed death inhibitors of the malarial parasite plastid, 48 hour incubation
Conditions: P. falciparum luciferase growth in erythrocytes; series mostly up to 28.7 µM
Summary of the method: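 Luminescence readout; reporter = integrated firefly luciferase in P. falciparum. RBC culture at 2% hematocrit, 0.1% parasitemia final, 37 C/5% CO2; decreased signal taken as growth inhibition.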
Potency is the fitted concentration of half-maximal effect; tags give direction and shape of the fitted curve.

Compound	Potency
COc1ccccc1-c1nn2c(-c3ccccc3Cl)nnc2s1	inconclusive [inhibitor, partial curve]
CN(C)C(CNC(=O)CSc1nc2sc3c(c2c(=O)n1C)CCCC3)c1ccccc1 (stereo not given)	inconclusive [inhibitor, single point]
CCCCCc1nc2ccccc2c(=O)n1-c1ccc(Cl)cc1[N+](=O)[O-]	active: 4.65 µM
COc1ccc2cc(/C(C)=N/NC(=O)c3cc(-c4cccnc4)nc4ccccc34)ccc2c1	inactive
Cn1cc([N+](=O)[O-])c(C(=O)Nc2ccc3nc(-c4ccccc4)[nH]c3c2)n1	inconclusive [inhibitor, single point]
CCN(CC)S(=O)(=O)c1ccc(N2CCCCC2)c(NC(=O)/C=C/c2ccc(OC)c(OC)c2)c1	active: 9.28 µM
O=C(NC1CCCC1)C(c1ccncc1)N(C(=O)c1csnn1)c1cccc(Cl)c1 (stereo not given)	inconclusive [inhibitor, partial curve, poor fit]
CCOC(=O)c1c(C)[nH]c(C(=O)N/N=C\c2ccccc2Cl)c1C	inconclusive [inhibitor, single point]
CCn1ccnc1CNC(=O)c1ccc2oc(CCCc3ccccc3)nc2c1	inconclusive [inhibitor, single point]
Cc1cc(NS(=O)(=O)c2ccc(NC(=O)c3c(F)c(F)c(F)c(F)c3F)cc2)nc(C)n1	inactive
Cc1ccc2c(C(=O)CSc3ccccc3)c(C)[nH]c2c1	inactive
COc1ccccc1-c1sc2cc3c(cc2c1C#CCO)OCO3	inconclusive [inhibitor, partial curve]
CN(C)Cc1cc(C(C)(C)c2cc(CN(C)C)c(O)c(CN(C)C)c2)cc(CN(C)C)c1O	active: 4.15 µM
O=C(NCc1ccc(Cl)cc1)c1cc(S(=O)(=O)N2CCCCC2)c[nH]1	inconclusive [inhibitor, single point]
O=P(/C(=N/O)Sc1ccccc1)(N1CCOCC1)N1CCOCC1	inconclusive [inhibitor, single point]
O=C(NC(=S)NC1CCSC1=O)c1cccc([N+](=O)[O-])c1 (stereo not given)	inactive
O=C(Nc1c(F)cccc1F)c1cnc(N2CCN(c3ccccn3)CC2)c2ccccc12	inconclusive [inhibitor, single point]
CC(=O)OCC1=C(C(=O)O)N2C(=O)[C@@H](N)[C@@H]2SC1	inactive
CC1=CC(C)(C)N(C(=O)CSc2nnc(N)s2)c2c(C)cc(C)cc21	inconclusive [inhibitor, partial curve, poor fit]
Cn1c(SCC(=O)Nc2cc(C(C)(C)C)nn2-c2ccccc2)nc2ccccc21	inconclusive [inhibitor, single point]
COC(=O)c1ccccc1NC(=O)NN1CCN(C)CC1	inactive
CCOc1cc2c(cc1OCC)-n1cccc1C(c1ccc(C)cc1C)NC2 (stereo not given)	inconclusive [inhibitor, single point]
C/C(=N\NC(=S)NCC(C)(C)C)c1cc(F)cc(F)c1O	active: 0.294 µM

Compound	Potency
O=C(O)C(Cc1ccccc1)N1C(=O)c2cccc3cccc(c23)C1=O (stereo not given)	inactive
Cc1ccc(N/C(N)=N/c2nc3c(c(=O)[nH]2)CCCC3)c(C)c1	inconclusive [inhibitor, single point]
Cc1[nH]c2ccc(Br)cc2c(=S)c1C/C=C/Cl	inconclusive [inhibitor, partial curve, poor fit]
Cc1ccc(C2(C)NC(=O)N(CC(=O)NC(=O)NCCC(C)C)C2=O)cc1 (stereo not given)	inconclusive [inhibitor, single point]
CC(=O)NC1=NN(C(C)=O)C(C)(c2ccc3ccccc3c2)S1 (stereo not given)	active: 2.94 µM
COc1ccccc1NC(=O)Cn1nc(-c2ccc3c(c2)OCCO3)ccc1=O	inconclusive [inhibitor, single point]
COc1ccc(-c2cc(-c3ccccc3)no2)cc1	inactive
C=CCn1c(C)cc(-c2csc(NC(=O)CCc3nc4ccccc4c(=O)[nH]3)n2)c1C	inconclusive [inhibitor, partial curve]
CCOC(=O)N1CCc2c(sc(NC(=O)c3ccc(S(=O)(=O)N4CCCC4)cc3)c2C#N)C1	active: 11.7 µM
Cc1cccc(N2CCN(C(=O)c3cc(S(=O)(=O)N4CCOCC4)cn3C)CC2)c1C	inconclusive [inhibitor, partial curve, poor fit]
Cc1cc(Nc2cccc([N+](=O)[O-])c2)n2c(nc3ccccc32)c1C#N	inconclusive [inhibitor, full curve]
O=C(NC1CCCCCC1)c1ccccc1-c1ccccc1	inactive
CCCC(=O)Nc1c(C)n[nH]c1C	inactive
CC(C)(CN1CCN(Cc2ccccc2)CC1)NS(=O)(=O)c1ccc(Cl)cc1	inconclusive [inhibitor, single point]
COc1ccccc1CN1C[C@@H]2C[C@@H](c3ccccc3OC)N3CCC[C@@]23C1=O	inconclusive [inhibitor, single point]
S=c1nc[nH]c2c1sc1nc(-c3ccccc3)c3c(c12)CCCC3	inconclusive [inhibitor, single point]
CCNc1[nH]c(=O)n(C)c(=O)c1N=O	inconclusive [inhibitor, partial curve, poor fit]
COc1cc(/C=N/NC(=O)c2cc(-c3ccccc3)nc3ccccc23)ccc1O	inactive
CC(C)NC(=O)CCn1c(=S)oc2ccccc21	inactive
COCCCNC(=S)NNC(=S)NCCCOC	inconclusive [inhibitor, single point]
Cn1c(SCC(=O)N2c3ccccc3CCc3ccccc32)nnc1-c1cc2ccccc2cc1O	active: 1.85 µM
COc1ccccc1NS(=O)(=O)c1ccc(C)c(C(=O)NCc2cccnc2)c1	inconclusive [inhibitor, single point]
